Test results as given in the supplement of paper PMC11417369.
The list shows a part of the results.

tested on: PfAP2-HC AP2 domain (GST-tagged); experiment: gcPBM binding intensity (ln(normalized median fluorescence intensity)); higher = stronger DNA binding
Outline: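 GST-fused DNA-binding domains of P. falciparum, expressed in E. coli, were applied at about 25 μg on average for 1 h to an Agilent 4 × 180k array of primer-extended double-stranded 36-bp intergenic genomic probes and negative controls. Binding intensity is the highest Masliner-normalised natural-log median intensity across replicate spots of either probe orientation, measured with Alexa488 anti-GST antibody and a 488 nm scan.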

| Sequence | gcPBM binding intensity (ln) |
| --- | --- |
| ATATATATATTTATAGTGCATTTATATTAAAATATC [GTGCAC_site9818] | 9.53 |
| TCAAATAGAAAATAAAGTACTTAATTTTTAGGAACA [XGTACX_site1446] | 9.61 |
| TTGAATATTTAAAAACGTACATAAAATTATTTGATT [XGTACX_site5422] | 9.52 |
| ATATTTATATTTTTTTGTACATATATAATTTTATAA [XGTACX_site4151] | 9.63 |
| ATATATATTTATATATGTACATATTAATATATATAT [XGTACX_site1144] | 9.53 |
| ACATATTTATATATGTGTACATAAATATTCTTTTAA [XGTACX_site8238] | 9.71 |
| ATAAAAAAATCAGACACACACACGTAAACCCATACA [CACACA_site2773] | 10.6 |
| ATTTATTTTTTTATCACACATTTGTGAAATGTGCAT [CACACA_site5869] | 9.82 |
| ATATTAAGGTTTATATTTTAACTTATTATTTTATTC [CACACA_negctrl_site795] | 9.65 |
| AAAAAAAAAAAACACACACACACACCCATATACATA [CACACA_site2664] | 11 |
| GTAAAAAGATAATGAAGTACATTTTTTCATTTTTAT [XGTACX_site5579] | 9.57 |
| CATATCCTTACGAACTGTACAATATTAAGAATAAAA [XGTACX_site1651] | 9.49 |
| ATATATTCAATTCATACACACACAATTTAAGAATGA [CACACA_site9289] | 10.2 |
| CTAGACTTTATTAATTGTACATATGTGTATTTTATA [XGTACX_site480] | 9.66 |
| GTCTATAACTATTGCGCACACTTTAAAAAAAAAGAA [CACACA_site1003] | 9.88 |
| TAGAAGCATTGACACACACACATACATACACATACA [CACACA_site6802] | 11.2 |
| TATATATATATATAATGTACATAATAATAATACATC [XGTACX_site5587] | 9.78 |
| TTTTCCTTTACATAATGTACACAAAAAAAAAAAAAA [XGTACX_site716] | 9.18 |
| GTTACTGCATACATAACACACATATTCAAAACCCAT [CACACA_site5856] | 9.81 |

| Sequence | gcPBM binding intensity (ln) |
| --- | --- |
| AATACAGACAGACACACACACAAAATAAAATACAAA [CACACA_site245] | 10.5 |
| CATCATAGAGTGGAGTGTACAAATATGTCAACATAT [XGTACX_site2264] | 9.75 |
| TCTTTTTTTTGAATTTGTACATAAGACAATAAAAAA [XGTACX_site4682] | 9.21 |
| TTAACAGTAAAACACAGTACATATATACTTAAAACA [XGTACX_site1930] | 9.79 |
| ATTTTTTTCCTAATGGTGCGAATAAATATCCATACC | 9.58 |
| AAAGCTTACATATACACACATACATAAATTCATAAA [CACACA_site2469] | 9.86 |
| AAAAAAAAAAAAGGAACACACAAGTAACAATAAATT [CACACA_site2481] | 10.2 |
| TTTTTTTATTATACTAGTACATATATATACAGCACA [XGTACX_site3464] | 9.6 |
| ATACTAAAGAAACACACACACATATATATATAGAAT [CACACA_site100] | 10.9 |
| TTTACACCCTAAAAATGTACAAGAAAGATTATATTA [XGTACX_site1102] | 9.47 |
| GAGAAATGGGGACACACACACATATTATAGATATAT [CACACA_site6829] | 10.4 |
| TTGTTTGATATCTTTGTCACGAAAAAAATATATATA [GTGCAC_negctrl_site54] | 9.34 |
| TAAGGATAAAATAAATGTACATATGTAAAATTATTA [XGTACX_site4170] | 9.84 |
| TAATCTCATAAAACCGCACACACATAAAATTTGCAT [CACACA_site3890] | 10.4 |
| TTTTTAATAATCTCTCAAAATGTTCTTATATTTTAC [CACACA_negctrl_site1691] | 9.58 |
| ATATATTTCCTGAGGAGTACTATGAAAGACAAAAAA [XGTACX_site5628] | 9.54 |
| ATAATTTTGATTATCACACATATATATATATATATG [CACACA_site5882] | 9.67 |
| TAAGAAAAAAGTAAATGTACAGAGAAAATTATCTAT [XGTACX_site7374] | 9.74 |
| ATTTATTACAAATGAATGCACTATATCTTAATTTTG | 9.58 |

| Sequence | gcPBM binding intensity (ln) |
| --- | --- |
| ACATATATATAAAGGTGTACACATATATATATATAT [XGTACX_site4779] | 9.78 |
| TTTGTCATTTTATTATGTACTCAGCATATAGGGGGG [XGTACX_site505] | 10.6 |
| AAAAAAATTCTGACTTGTACATATAAAATTTACAAA [XGTACX_site4408] | 9.33 |
| GATTTTTAAAATATCACACATAAAAAAAAAAAAAAA [CACACA_site5516] | 9.19 |
| TAATTTAATAATTAGACACACATGTGGAAAATAAAA [CACACA_site5401] | 10.2 |
| GTCAAATTTTTGTGCACACATATATAGTTATTATTA [CACACA_site2241] | 10.3 |
| TTTATATGTATTAAGTGTACACATATAATCTATCTT [XGTACX_site4922] | 9.78 |
| TAATAATATATATGAAGTACAATAACTTTTTGTTTT [XGTACX_site292] | 9.57 |
| TTTCTTTTCTCAGAAATTATTCAAATGAAAAAAAAT [TGCATGCA_negctrl_site44] | 9.22 |
| AAAATACACGCATACACACACACACCCACCCATATA [CACACA_site639] | 11.5 |
| AAAAAAAAAAAAAAAACACACACATACACCCAAAAA [CACACA_site7910] | 10.5 |
| TTACATATGGTTAGTAGTACATATATAAATGTAAAT [XGTACX_site7206] | 9.78 |
| TTTATAAAAATATACACACATACAAATATGCATATA [CACACA_site712] | 9.73 |
| GAAAAAAGGAAATAAAGAAAAAAAAAAATGAAATAT [XGTACX_negctrl_site318] | 9.49 |
| AAACATGATTATTATAGTACAATTATAATTATTATA [XGTACX_site2590] | 9.53 |
| GTCATAAAAACATATACACACTTGAAATATAAAAAT [CACACA_site5315] | 9.88 |
| GTATACACATATATATGTACTTAATTATTTTATGTC [XGTACX_site6707] | 9.76 |
| CAAAGGGAAATTAACACACACATATATATATATATA [CACACA_site2453] | 10.3 |
| CTGTTTAAAATATAAACACACATTGTTTGCTTTAGA [CACACA_site1301] | 9.66 |
